# Numbering of substitutions follows the chain as printed; changes in the protein carry UniProt numbers. The list shows a part of the results.
# T1: RBFOX1 RRM (Homo sapiens, UniProt Q9NWB1 109-208)
# T1 sequence: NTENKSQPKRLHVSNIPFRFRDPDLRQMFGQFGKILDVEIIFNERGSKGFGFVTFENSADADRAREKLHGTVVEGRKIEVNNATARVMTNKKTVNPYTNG
# B1: AUAGCAA (DNA:RNA)
# RNA: GGGAGACCGGAAUUCAGAUUGUCCAUAGCAAUUAAAUCCCGUCGUAGCCACCA
# DNA 1: CAATCTGAATTCCGGTCTCCC
# DNA 2: TGGTGGCTACGACGGGATT
# B2: CGUCUGU (DNA:RNA)
# RNA: GGGAGACCGGAAUUCAGAUUGUCCCGUCUGUUUAAAUCCCGUCGUAGCCACCA
# DNA 1: CAATCTGAATTCCGGTCTCCC
# DNA 2: TGGTGGCTACGACGGGATT
# B3: UUCAUGU (DNA:RNA)
# RNA: B2 RNA with C25U, G26U, U27C, C28A
# DNA 1: CAATCTGAATTCCGGTCTCCC
# DNA 2: TGGTGGCTACGACGGGATT
# B4: CCCGUUU (DNA:RNA)
# RNA: B2 RNA with G26C, U27C, C28G, G30U
# DNA 1: CAATCTGAATTCCGGTCTCCC
# DNA 2: TGGTGGCTACGACGGGATT
# B5: UGCGGUA (DNA:RNA)
# RNA: B1 RNA with A25U, U26G, A27C, C29G, A30U
# DNA 1: CAATCTGAATTCCGGTCTCCC
# DNA 2: TGGTGGCTACGACGGGATT
# B6: GCACCGG (DNA:RNA)
# RNA: B1 RNA with A25G, U26C, G28C, A30G, A31G
# DNA 1: CAATCTGAATTCCGGTCTCCC
# DNA 2: TGGTGGCTACGACGGGATT
# B7: UAGCACG (DNA:RNA)
# RNA: B2 RNA with C25U, G26A, U27G, U29A, G30C, U31G
# DNA 1: CAATCTGAATTCCGGTCTCCC
# DNA 2: TGGTGGCTACGACGGGATT
# B8: UCACCCA (DNA:RNA)
# RNA: B1 RNA with A25U, U26C, G28C, A30C
# DNA 1: CAATCTGAATTCCGGTCTCCC
# DNA 2: TGGTGGCTACGACGGGATT
# B9: GCUCCAG (DNA:RNA)
# RNA: B1 RNA with A25G, U26C, A27U, G28C, A31G
# DNA 1: CAATCTGAATTCCGGTCTCCC
# DNA 2: TGGTGGCTACGACGGGATT
# B10: AUAAUUG (DNA:RNA)
# RNA: B1 RNA with G28A, C29U, A30U, A31G
# DNA 1: CAATCTGAATTCCGGTCTCCC
# DNA 2: TGGTGGCTACGACGGGATT
# B11: CAAGAGU (DNA:RNA)
# RNA: B2 RNA with G26A, U27A, C28G, U29A
# DNA 1: CAATCTGAATTCCGGTCTCCC
# DNA 2: TGGTGGCTACGACGGGATT
# B12: UCAACCU (DNA:RNA)
# RNA: B1 RNA with A25U, U26C, G28A, A30C, A31U
# DNA 1: CAATCTGAATTCCGGTCTCCC
# DNA 2: TGGTGGCTACGACGGGATT
# B13: GCUUCUA (DNA:RNA)
# RNA: B1 RNA with A25G, U26C, A27U, G28U, A30U
# DNA 1: CAATCTGAATTCCGGTCTCCC
# DNA 2: TGGTGGCTACGACGGGATT
# B14: AAUGUCU (DNA:RNA)
# RNA: B2 RNA with C25A, G26A, C28G, G30C
# DNA 1: CAATCTGAATTCCGGTCTCCC
# DNA 2: TGGTGGCTACGACGGGATT
# B15: UACACAC (DNA:RNA)
# RNA: B1 RNA with A25U, U26A, A27C, G28A, A31C
# DNA 1: CAATCTGAATTCCGGTCTCCC
# DNA 2: TGGTGGCTACGACGGGATT
# B16: UUCUUAA (DNA:RNA)
# RNA: B1 RNA with A25U, A27C, G28U, C29U
# DNA 1: CAATCTGAATTCCGGTCTCCC
# DNA 2: TGGTGGCTACGACGGGATT
# B17: UUACCUC (DNA:RNA)
# RNA: B1 RNA with A25U, G28C, A30U, A31C
# DNA 1: CAATCTGAATTCCGGTCTCCC
# DNA 2: TGGTGGCTACGACGGGATT
# B18: AAAGUGA (DNA:RNA)
# RNA: B1 RNA with U26A, C29U, A30G
# DNA 1: CAATCTGAATTCCGGTCTCCC
# DNA 2: TGGTGGCTACGACGGGATT
# B19: UAAACGC (DNA:RNA)
# RNA: B1 RNA with A25U, U26A, G28A, A30G, A31C
# DNA 1: CAATCTGAATTCCGGTCTCCC
# DNA 2: TGGTGGCTACGACGGGATT
# B20: AAAAGCG (DNA:RNA)
# RNA: B1 RNA with U26A, G28A, C29G, A30C, A31G
# DNA 1: CAATCTGAATTCCGGTCTCCC
# DNA 2: TGGTGGCTACGACGGGATT
# Biological target: T1, RBFOX1 RRM
# Experiment: EMSA; HiTS-Eq, 1 nM pool, 10 min; buffer printed only for the single-RNA assays: 10 mM Tris pH 7.5, 150 mM NaCl, 3.4 mM EDTA, 0.001% NP-40, 30 C
# Details: tags: His6 N-terminal (pET28a); label: 5' 32P
# Procedure, shortened: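 Purified RbFox RRM (wild type or mutant) was equilibrated for 10 min in 50 µL with 1 nM of a 5′-radiolabelled pool of RNA with 7 randomized nucleotides, its flanks annealed to DNA oligonucleotides, across increasing protein concentrations. Free RNA was separated by 8% native PAGE, excised, reverse-transcribed, PCR-barcoded and sequenced on an Illumina HiSeq 2500. Relative association constants came from read-count changes of each variant against the control reaction, normalised to the cognate motif.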
row,Binder,binding signal
1,B1,0.0012 KA relative to UGCAUGU
2,B2,0.0134 KA relative to UGCAUGU
3,B3,0.0115 KA relative to UGCAUGU
4,B4,0.00209 KA relative to UGCAUGU
5,B5,0.0199 KA relative to UGCAUGU
6,B6,0.00674 KA relative to UGCAUGU
7,B7,0.0464 KA relative to UGCAUGU
8,B8,0.00148 KA relative to UGCAUGU
9,B9,0.00747 KA relative to UGCAUGU
10,B10,0.00814 KA relative to UGCAUGU
11,B11,0.00517 KA relative to UGCAUGU
12,B12,0.00233 KA relative to UGCAUGU
13,B13,0.012 KA relative to UGCAUGU
14,B14,0.0125 KA relative to UGCAUGU
15,B15,0.000979 KA relative to UGCAUGU
16,B16,0.00449 KA relative to UGCAUGU
17,B17,0.00238 KA relative to UGCAUGU
18,B18,0.00633 KA relative to UGCAUGU
19,B19,0.00549 KA relative to UGCAUGU
20,B20,0.00293 KA relative to UGCAUGU
